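Compound exposure: 48 hours, 5 concentrations, 96-well plates. GI50 = concentration required for 50% inhibition of growth.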 Active and inactive are the calls of the source. Rule as the data show it: active = GI50 up to about 1.1 µM and inactive = higher.

The test system of this test is NCI-H322M. Nature of the test: NCI anticancer screen, dose series, 48 h.
As to `O=C1c2ccccc2-c2nnc(-c3ccc([N+](=O)[O-])cc3)cc21`, the GI50 is inactive: > 10 µM.

Take `C/C(=N\NC(=O)c1ccncc1)c1sc(-n2nc(-c3ccccc3)cc2-c2ccccc2)nc1C`: the GI50 was inactive: > 65.8 µM.

Consider `NNC(=O)CCc1ccc2ccc3ccccc3c2c1`, for which the GI50 is inactive: > 100 µM.

With `COc1cc(/C=C(\C#N)c2nc3ccccc3o2)ccc1O`, the GI50 is inactive: 15.6 µM.

Consider `O=C(O)Cc1nc[nH]c1C(=O)O`, for which the GI50 is inactive: > 100 µM.

As for `Oc1c(C(Nc2ccccn2)c2ccccc2)ccc2cccnc12` (stereo unspecified), the GI50 is inactive: 3.77 µM.

Regarding `COc1cc(O)cc2oc(-c3ccc(O)cc3)cc(=O)c12`, the GI50 was inactive: > 100 µM.

Regarding `CC(C)(C)c1cc(C2COC(=O)COCCOCC(=O)OCCOCCO2)cc(C(C)(C)C)c1O` (stereo unspecified), the GI50 is inactive: 24.5 µM.

Regarding `c1ccc(OCc2nnc(CCCCCCCCc3nnc(COc4ccccc4)o3)o2)cc1`, the GI50 was inactive: > 100 µM.

As to `CCOc1ccccc1NC(=O)CC(C(=O)OC)C(=O)C(=O)OC` (stereo unspecified), the GI50 was inactive: > 100 µM.

For `COC(=O)NCCc1n[nH]c2c1C(=O)C=C(N1CCOCC1)C2=O`, the GI50 was inactive: > 100 µM.

`C=C(C)CCN[Si](c1ccccc1)(c1ccccc1)C(C)(C)C`: the GI50 is inactive: 31.4 µM.

As for `N#CC(C#N)=Cn1c(=S)[nH]c2ccccc21`, the GI50 was inactive: > 100 µM.

Regarding `CC(C)=C1C2CC3(C)CCC2(C)CCC13.CC1=CCC2C3(C)CCC2(C(C)C)C1C3` (stereo unspecified), the GI50 is inactive: 44.8 µM.

As to `COC(=O)c1c2n(c3ccccc13)C[C@H]1OC(C)(C)O[C@@H]21`, the GI50 is inactive: > 100 µM.

Regarding `CC1(C)OC2COC3(CNO)OC(C)(C)OC3C2O1` (stereo unspecified), the GI50 was inactive: > 100 µM.

Turning to `O=[N+]([O-])c1cccc2nc3ccccc3c(NCCNCCO)c12`, the GI50 is active: 0.0153 µM.

Turning to `OCCCC(O)(c1ccccc1)c1ccccc1`, the GI50 was inactive: > 100 µM.

Turning to `Cn1c(=O)oc2cc(C(O)CN3CCN(Cc4ccc5c(c4)OCO5)CC3)ccc21` (stereo unspecified), the GI50 is inactive: > 100 µM.

In the case of `Oc1nc2c(c(-c3ccccc3Cl)n1)COC/C2=C\c1ccccc1Cl`, the GI50 is inactive: > 100 µM.

Regarding `O=C1NC(N2CCOCC2)=N/C1=C\c1ccc(O)cc1`, the GI50 is inactive: > 100 µM.

`CC(=O)OCCCCn1cnc2nc(Nc3ccccc3)nc(Cl)c21`: the GI50 is inactive: > 100 µM.

As for `CC[C@]12C=CCN3CC[C@@]4(c5cc(Br)c(OC)c([N+](=O)[O-])c5N(C)[C@H]4[C@@](O)(C(=O)OC)[C@@H]1OC(C)=O)[C@@H]32`, the GI50 is inactive: 65.2 µM.

As for `CCOC(=O)c1ccc(C(=O)n2ccnc2)[nH]1`, the GI50 was inactive: > 100 µM.

With `CC(C)OP(=O)(OC(C)C)c1ccc2c(c1)OCCOCCOCCOCCO2`, the GI50 was inactive: > 100 µM.

As for `CCCCCCCNC(P(=O)(O)O)P(=O)(O)O`, the GI50 was inactive: > 100 µM.

Regarding `O=c1[nH]c(=O)n(C2CC(O)C(CO)O2)cc1C(OCC(F)(F)F)OCC(F)(F)F` (stereo unspecified), the GI50 was inactive: > 100 µM.

For `CC1(C)CC(=O)c2c(nc3ccc4ccccc4c3c2-c2ccc(NC(=O)CCCC(=O)Nc3ccc(-c4c5c(nc6ccc7ccccc7c46)CC(C)(C)CC5=O)cc3)cc2)C1`, the GI50 was inactive: > 100 µM.

On to `COC1=CC(=O)c2ccccc2C1(C)C1=NC(C)(C)CO1` (stereo unspecified), for which the GI50 is inactive: > 100 µM.

Take `CCCCCC/C(CC(=O)CCC(=O)NCCc1ccccc1)=N\NC(=O)c1ccc2ccccc2c1O`: the GI50 is inactive: 42.3 µM.

On to `CCCSc1ccc2[nH]c(N3C(=O)/C(=C/c4cc(OC)c(OC)c(OC)c4)N=C3c3ccccc3)cc2c1`, for which the GI50 is active: 0.556 µM.

Regarding `CN(CCN(C)CCN(C)C(=O)Cc1ccc(Cl)c(Cl)c1)CCN1CCCC1`, the GI50 is inactive: 21.2 µM.

For the compound `CCOC(=O)C1(Cc2ccc3ccccc3c2)CCCCC(=O)N1` (stereo unspecified), the GI50 is inactive: > 100 µM.

As to `N=C(N)N/N=C\c1c(-c2cccc([N+](=O)[O-])c2)nc2sccn12`, the GI50 was inactive: 5.43 µM.

Consider `O=C1C(CN(Cc2ccccc2)Cc2ccccc2)CCCC1CN(Cc1ccccc1)Cc1ccccc1` (stereo unspecified), for which the GI50 is inactive: > 73.5 µM.

As for `CCOC(=O)c1cccc(NC(=O)CBr)c1`, the GI50 is inactive: 2.47 µM.

For `N#CCC(=O)N/N=C1/C(=O)N(c2ccc(Cl)cc2)C(=O)C(=O)C1c1nc2ccccc2s1` (stereo unspecified), the GI50 was inactive: 36.7 µM.

As to `CCOC(=O)C(Cc1ccccc1)NC(=O)OC(C)(C)C` (stereo unspecified), the GI50 was inactive: > 100 µM.

For `CCOP(=O)(OCC)C1CC(C)OC1=O` (stereo unspecified), the GI50 is inactive: > 100 µM.

Take `N#C/C(=C\c1ccc(O)c(O)c1)c1c(C#N)c(N)nn1-c1ccccc1`: the GI50 is inactive: 19.7 µM.

`O=C(O)CCCCCNC(=O)CCC(CN(CC(=O)OCc1ccccc1)CC(=O)OCc1ccccc1)N(CC(=O)OCc1ccccc1)CC(=O)OCc1ccccc1` (stereo unspecified): the GI50 was inactive: 16.1 µM.

Regarding `O=S(=O)(SCc1ccccc1)C(c1ccccc1)c1ccccc1`, the GI50 was inactive: > 100 µM.

Regarding `O=C(CCCCCCCCCCc1ccccc1)C1=C(O)CC(O)CC1=O` (stereo unspecified), the GI50 is inactive: 94.4 µM.

In the case of `C=[N+](CNC(=O)CNC(=O)C(Cc1ccccc1)NC(=O)OC(C)(C)C)C(=O)CNC(=O)C(Cc1ccccc1)NC(=O)OC(C)(C)C` (stereo unspecified), the GI50 is inactive: > 100 µM.

For `C[n+]1c2ccccc2n2c3ccccc3c(NCCCn3ccnc3)c(C#N)c21`, the GI50 is inactive: 2.73 µM.

Take `C[n+]1[se]c2ccccc2c1Cl`: the GI50 is inactive: 38.8 µM.

Consider `CC12CCC(Br)C(C)(C)C1CC=C1C(=O)OCC1O2` (stereo unspecified), for which the GI50 is inactive: 15.6 µM.

For `COc1ccc(/C=N/n2cnc3[nH]c(C)c(Cc4ccccc4)c3c2=N)cc1`, the GI50 is inactive: > 100 µM.

In the case of `O=[N+]([O-])c1ccc(-c2nc(/C=N/N3CCCCC3)cs2)o1`, the GI50 is inactive: 61.9 µM.

In the case of `COP(=O)(OC)C(N)CCSC` (stereo unspecified), the GI50 is inactive: > 100 µM.

Turning to `CSC1(CC(=O)N(C)C)C(=O)Nc2ccccc21` (stereo unspecified), the GI50 was inactive: > 100 µM.

In the case of `CC(C)(C)[C@H]1CO[C@]2(C)[C@@H]3C[C@@H]3C(=O)N12`, the GI50 was inactive: > 100 µM.

With `Cc1ccc2[nH]c3[nH]c(=S)[nH]c(=O)c3c2c1`, the GI50 is inactive: > 100 µM.

Take `COc1cc2ccnc3c2c(c1OC)N(C)C=C3`: the GI50 was inactive: 15.1 µM.

For the compound `COc1cccc(Nc2nc(-c3cccs3)nc3ccc(Br)cc23)c1`, the GI50 was inactive: 75 µM.

In the case of `O=C1c2ccccc2C2(O)NC(=S)N(c3ccccc3)C12O` (stereo unspecified), the GI50 is inactive: > 100 µM.

Consider `Cc1cccc(C)c1NC(=O)/C(CC(=O)CC(c1ccccc1)c1c(O)c2ccccc2oc1=O)=N/O` (stereo unspecified), for which the GI50 is inactive: > 100 µM.

On to `O=C(Nc1nc2ncn(CCNCc3ccccc3)c2c(=O)[nH]1)c1ccccc1`, for which the GI50 was inactive: > 100 µM.

Take `COc1ccc(N[S+]([O-])c2ccc(-c3ccccc3)cc2)cc1` (stereo unspecified): the GI50 was inactive: > 100 µM.

For `CC(C)CC(C(N)=O)C(=O)NC(Cc1ccccc1)NC(=O)CNC(=O)C(C)NC(=O)C(N)Cc1ccc(O)cc1` (stereo unspecified), the GI50 was inactive: > 100 µM.

For the compound `COC(=O)C1=C(C(=O)OC)SC2(S1)C(C(=O)OC)=C(C(=O)OC)Sc1c2ss/c1=N\c1ccc(Cl)cc1`, the GI50 is inactive: 1.7 µM.

Consider `COC(=O)C(C(=O)OC)C1CC(=O)c2c(Br)sc(Br)c21` (stereo unspecified), for which the GI50 was inactive: 18.7 µM.

As to `Cc1oc2nc(N(C)C)n3cnnc3c2c1C`, the GI50 was inactive: > 100 µM.

In the case of `O=C1NCN(c2ccccc2)C12CCN(CCCSc1ccc(F)cc1)CC2`, the GI50 is inactive: 30.1 µM.

For `O=S1(=O)CC#CC[C@@H](CO)[C@@H](CO)CC#CC1`, the GI50 was inactive: > 100 µM.

Consider `CC(C)=CCc1c2c(c(O)c3c(=O)c4c(oc13)-c1ccc(O)cc1OC4C=C(C)C)C=CC(C)(C)O2` (stereo unspecified), for which the GI50 was inactive: 14.7 µM.

Take `COC(=O)c1cc(S(=O)(=O)NC2=NNC(C)CN2)c(S)cc1Cl` (stereo unspecified): the GI50 is inactive: 43.1 µM.

For `C=C1[C@H](OC(C)=O)[C@H]2[C@@H](OC(C)=O)[C@@H](C)C[C@]2(C)C(=O)[C@H](C)/C=C/C(C)(C)C(=O)[C@H](OCC(C)C)[C@H]1OC(C)=O`, the GI50 was inactive: > 25 µM.

Consider `CC(=O)c1sc(Nc2nnc(-c3ccc(-c4nnc(Nc5nc(C)c(C(C)=O)s5)o4)cc3)o2)nc1C`, for which the GI50 is inactive: > 100 µM.

Regarding `COC(=O)C12CC(c3ccccc31)C1C(=O)OC(=O)C12` (stereo unspecified), the GI50 is inactive: > 100 µM.

Take `O=S(=O)(C1=CC(S(=O)(=O)c2ccccc2)CN(Cc2ccccc2)C1c1cccc2ccccc12)c1ccccc1` (stereo unspecified): the GI50 is inactive: > 69 µM.

With `CCOC(=O)/C=C1/Oc2ccccc2C1(C)O` (stereo unspecified), the GI50 is inactive: > 100 µM.

As to `O=C(CC(=O)N1N=C(c2ccccc2)C(/N=N/c2ccc(C(=O)O)cc2)C1=O)Nc1ccc(F)cc1` (stereo unspecified), the GI50 was inactive: 21.6 µM.

`O=S(O)CCCCSSCCCCS(=O)(=O)S`: the GI50 was inactive: 71.8 µM.

In the case of `C/C(=N\NC(=O)c1cccnc1)c1cccc(/C(C)=N/NC(=O)c2cccnc2)n1.CC(=O)[O-].CC(=O)[O-].[Zn+2]`, the GI50 was inactive: 3.05 µM.

Take `CC(NNC(=O)c1cc[n+]([BH2-]C#N)cc1)c1ccc(F)cc1` (stereo unspecified): the GI50 was inactive: > 100 µM.

Take `CCO[C@]12C[C@H](OC)[C@@]3(O)CC(C1[C@H]3O)C13C4C2[C@H](OC)C1[C@](COC)(CN4CC)[C@H](O)C[C@@H]3OC` (stereo partly specified): the GI50 is inactive: > 100 µM.

For `CCNC(=O)C(O)C1(O)CCC2[C@@H]3CCC4=CC(=O)C=C[C@]4(C)C3[C@@H](O)C[C@@]21C` (stereo partly specified), the GI50 is inactive: > 100 µM.

On to `O=C(/C=C/c1ccc(O)c(O)c1)O[C@H]1CCCC[C@@H]1OC(=O)/C=C/c1ccc(O)c(O)c1`, for which the GI50 was inactive: 18.7 µM.

For the compound `CN(C)CCCNc1ccc2nnn3c4ccc(O)cc4c(=O)c1c23`, the GI50 is inactive: 3.57 µM.

On to `Oc1ccc2ccccc2c1Cc1c(O)ccc2ccccc12`, for which the GI50 is inactive: 19.1 µM.

The values above are taken from ChEMBL document CHEMBL1201862, “PubChem BioAssay data set” (2004).
